From the BET-seq Pho4 binding data (Le et al. 2018)
This is one part of the list. These are noisy estimates, calculated here from bound and input reads.

biological target: T1, Pho4 (S. cerevisiae) (UniProt P07270); experiment: relative binding free energy (BET-seq); higher = weaker binding; conditions: reference: library average
T1 sequence: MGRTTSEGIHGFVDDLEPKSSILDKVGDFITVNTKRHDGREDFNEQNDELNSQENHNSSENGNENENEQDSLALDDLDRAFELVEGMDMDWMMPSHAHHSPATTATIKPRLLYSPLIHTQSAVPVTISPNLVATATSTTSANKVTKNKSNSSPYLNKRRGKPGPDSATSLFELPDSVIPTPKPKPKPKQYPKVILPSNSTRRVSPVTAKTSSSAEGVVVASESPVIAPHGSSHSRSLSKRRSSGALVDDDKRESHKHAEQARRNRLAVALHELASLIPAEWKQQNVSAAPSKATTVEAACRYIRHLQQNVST

Sequence	relative binding free energy [kcal/mol]
TTCTTCACGTGGGGCA	0.09
CTTTTCACGTGTTCTT	0.41
TGGGTCACGTGGGCGT	-0.01
TGCTGCACGTGTGCTG	0.01
ATTATCACGTGTCTGG	0.19
TTCTGCACGTGGGTTG	-0.11
GGGGACACGTGCAGAG	0.12
GTGGGCACGTGTAGCA	0.1
GCGAGCACGTGATGGG	0.14
CAGGGCACGTGATTGT	0.09
CTGATCACGTGCTGGG	0.21
TGGCTCACGTGGGGCT	0.08
TGGTGCACGTGGTGTG	-0.09
GGTACCACGTGGTTAT	0.01
TGGAACACGTGTGTAA	0.15
ATTAGCACGTGAGCGG	0.15
CGCTACACGTGGGAGG	0
AGTGACACGTGGGTGT	-0.12
ATTGCCACGTGGTGAG	0.01
TTGATCACGTGAAGAG	0.42
GGTAGCACGTGTATAC	0.17
ATGTCCACGTGAAGGT	0.2
GTTCTCACGTGTTCTG	0.34

Sequence	relative binding free energy [kcal/mol]
ATGCTCACGTGGGTCA	0.14
ACGGGCACGTGGGAGG	-0.09
TTTGCCACGTGGGGAG	-0.25
CTTAACACGTGGGTAT	-0.02
CGAGGCACGTGGGGAA	-0.12
ATTTTCACGTGTAGCT	0.15
GGTTACACGTGTTTCT	0.07
GGAGACACGTGTTTGT	0.02
AGTTGCACGTGAAAAG	0.16
TCTATCACGTGCTGTG	0.14
ATTGCCACGTGATGTT	0.09
TTATTCACGTGCGTTG	0.15
AGAGGCACGTGGTCTA	-0.21
CGATTCACGTGGGCGG	0.2
ATTTTCACGTGGAGTG	0.26
TTCTTCACGTGGGAAG	0.11
TTAGGCACGTGTTATA	0.03
GTGCGCACGTGGGGTA	-0.32
GGGTACACGTGAAATA	0.46
TGGTTCACGTGCTCTA	0.22
GGACGCACGTGAGTTT	0.14
GCTGGCACGTGGAGGG	-0.22
GTTTACACGTGAGAAG	0.23

Sequence	relative binding free energy [kcal/mol]
GTTGACACGTGATCTG	0.15
TGCGTCACGTGGGTGC	-0.01
GGCAGCACGTGTGGAT	0.05
GTACGCACGTGGGGAG	-0.14
TCTATCACGTGGGAGT	0.14
TGGAACACGTGATAGT	0.23
ATGTACACGTGAGTAT	0.25
AAGGTCACGTGTTTCT	0.13
TTAGTCACGTGTTTCT	0.03
GTTTGCACGTGACTAA	0.3
AAATGCACGTGTATGT	-0.03
TAAGGCACGTGAGGGT	0.04
CAGGGCACGTGGGATA	-0.14
GGGTACACGTGTGATG	0.17
TGCTACACGTGTGTTG	0.1
GGCGTCACGTGGTCTG	0.05
TGGATCACGTGCGTTT	0.05
TATTTCACGTGTGCGC	0.21
AGTCTCACGTGGGATT	0.21
TGGGACACGTGTGGGC	0.09
CGTCTCACGTGTTGGT	0.36
GGGAGCACGTGATTAG	0.01
GGTGTCACGTGTGGTG	0.27

Sequence	relative binding free energy [kcal/mol]
TAGGGCACGTGTCAGG	-0.08
AGTAGCACGTGGTAGT	-0.13
TGGGACACGTGAGTTA	0.28
TGTCGCACGTGTTGGT	0
GTATTCACGTGGTTTA	0.26
GCTTGCACGTGGGCTA	-0.01
TTTATCACGTGAATTA	0.36
CTTTACACGTGGGGTG	-0.06
TAAGTCACGTGGAGGT	0.1
TTCGTCACGTGTAGCG	0.03
GTCGGCACGTGTTCGT	0
TATTTCACGTGTGCAT	0.15
GATTGCACGTGGTTCT	0.09
TGGTCCACGTGTTTTA	0.05
ATGGACACGTGAATTT	0.37
TGGATCACGTGTCATG	0.14
AACGGCACGTGTAATG	0.12
ATGTGCACGTGATATT	0.09
GATATCACGTGTATGT	0.04
TGCGACACGTGAGGAG	0.26
CTTTTCACGTGAGTGC	0.4
GAGAGCACGTGTTGAG	0.02
GTGATCACGTGCGTTT	0.12

Sequence	relative binding free energy [kcal/mol]
AAAGGCACGTGTTGAT	-0.15
TTAAGCACGTGTAGCG	-0.01
GTTAACACGTGTGATT	0.08
CGGCTCACGTGTGGAT	0.3
TTGGCCACGTGAAAGG	0.21
GATGACACGTGGGGGG	-0.05
ATTGGCACGTGTTTGT	-0.07
GAGAACACGTGGTTGG	0.07
AATGGCACGTGATTAT	-0.12
TGGGCCACGTGGGTGT	-0.17
AGTTTCACGTGTATCT	0.1
TGTAGCACGTGGGCTA	-0.3
ATTGTCACGTGAGCGT	0.2
TGAGTCACGTGCGGCG	0.07
TATTTCACGTGGTCAG	0.25
GAGCTCACGTGGTCGG	0.25
GATTCCACGTGGTGGT	0.02
GTTAACACGTGTGAGC	0.09
GTGATCACGTGGGATA	0.05
GTTAACACGTGGAGAA	0.23
ATCGTCACGTGTAGAG	0.13
AGCGGCACGTGTGTCT	-0.08
CAGAGCACGTGTGGGC	0.1
